Laboratory results as given in the supplement of paper PMC8277577.
Recombinant human monoclonal antibodies (heavy:light variable regions). ELISA EC50 on the named antigen, from 10 µg/ml down; lower = stronger. No active / inactive call.

Target: SARS-CoV-2 Wuhan-Hu-1 spike receptor-binding domain
Assay: ELISA binding EC50; higher = weaker binding; ELISA of recombinant human antibody on coated antigen, from 10 µg/ml in fourfold dilutions; four-parameter fit.

Row | Binder | ELISA binding EC50 [ng/mL]
1 | C888 (protein) chain 1: EVQLVESGGGLVQPGGSLRLSCAASGFTVSSNYMSWVRQAPGKGLEWVSVIYSGGSAYYADSVKGRFTISRDNSKNTLYLQMNSLRAEDTAVYYCARDLRDQDGYSYGAFDYWGQGTLVTVSS chain 2: QSALTQPASVSGSPGQSITISCTGTSSDVGGYNYVSWYQQHPGKAPKLMIYDVSNRPSGVSNRFSGSKSGNTASLTISGLQAEDEADYYCSSYTSSSSWVFGGGTKLTVL | 1.44
2 | C889 (protein) chain 1: EVQLVESGGGLVQPGGSLRLSCAVSGFTVSSNYMTWVRQAPGKGLEWVSLIYSGTSAFYADSVKGRFTISRDNSKNTLYLQMSSLRVNDTAIYYCARDLRKDDGYSYGAFDYWGQGTLVTVSS chain 2: QSALTQPASVSGSPGQSITISCSGTSSDVGAHNYVSWYQQYPGKAPKLMIFDVTDRPSGVSNRFSGSKSGNTASLTISGLQAEDEADYYCTSYTTNRSWVFGGGTKVTVL | 4.25
3 | C892 (protein) chain 1: EVQLVESGGGLVKPGGSLKVSCTASGFTFTDAWMSWVRQAPGKGLEWVGRIKSRAYGGTTDYGAPVQGRFTISRDDSINTLYLQMNSLTAEDTAVYYCTSQLWLRGPGDYWGQGTLVTVSS chain 2: NFMLTQPHSVSESPGKTVTISCTGSSGSIASNYVHWYQQRPGGAPTTVIYEDNQRPSGVPDRFSGSIDISSNSASLTISGLKTEDEGDYYCQSYDSGVNWVFGGGTKLTVL | 2.9
4 | C838 (protein) chain 1: EVQLVESGGGLVQPGKSLRLSCTASGFTFEDYAMHWVRQAPGKGLEWVSGINWKSGSRGYADSAKGRFTISGNTAKNTLHLQMNSLRAEDTAFYYCAKAGVRNIAAAGPDLNFDFWGQGTLVTVSS chain 2: EIVLTQSPATLSLSPGERATLSCRASQSVGTYLAWYQHKLGQAPRLLIYDATKRATGIPARFSGSGSGTDFTLTISSLEPEDFAIYYCQQRITFGQGTRLEIK | 3.03
5 | C893 (protein) chain 1: EVQLVQSGAEVKKPGESLKISCKGSGYYFTRQWIGWVRQMPGKGLEWMGIIYPGDSDTRYSPSFQGQVTISADKSISTAYLQWSSLKASDTAMYYCARGGWDPAEYSSSGGGGLDAFDIWGQGTMVTVSS chain 2: EIVLTQSPATLSLSPGERATLSCRASQSVSSYLAWYQQRPGRAPRLLIYDASNRATGIPGRFSGSGSGTDFSLTISSLEPEDFAVYYCQQRSSWPLTFGQGTRLEIK | 3.73
6 | C894 (protein) chain 1: EVQLVQSGAEVKKPGESLRISCKGSGYSFTGYWISWVRQMPGKGLEWMGRIDPSDSYTNYSPSFEGHVTFSADTALSTAYLQWSSLQASDTAIYFCGRIAPPGRGSYYPTQNYMDVWGKGTTVTVSS chain 2: EIVLTQSPGTLSLSPGERATLSCTADQSVPNSYLAWYQHKPGQAPRLLIYGASSRATGIPDRFSGSGSGIDFTLTISRLEPEDFAVYYCQQYGSLLLTFGGGTKVEIK | 16.8
7 | C895 (protein) chain 1: QVQLVQSGAEVKKPGSSVKVSCKASGGTFTSYAFSWVRQAPGQGLEWMGGIIPIFGTTNYAQKFQGRVTITADESTSTAYMELSSLRSEDTAVYYCARPEGCGSRTSCTPGAYYYGMDVWGQGTTVTVSS chain 2: EIVLTQSPATLSLSPGERATLSCRASQSVGSYLAWYQQKPGQAPRLLIYDASNRATGIPARFSGSGSGTDFTLTISSLEPEDFAFYFCQQRNSWPPEYSFGQGTKLEIK | 2.21
8 | C896 (protein) chain 1: QVQLVESGGGVVQPGRSLKLSCAASGFTFKTYGMHWVRQAPGKGLEWVAVISYDGTNDYYADSVKGRFTVSRDNSKNTLYLQMNSPRTEDTAVYYCAKAGGPYYYDTSGSFWYFDYWGQGTLVTVSS chain 2: DIQMTQSPSSLSASVGDRVTITCRASQTISSYLNWYQQKSGKAPELLVYDASNLESGVPSRFSGSGSGTDFTLTISSLQPEDFATYYCQQSYSFGPGTKVDIK | 4.3
9 | C897 (protein) chain 1: QVQLVESGGGVVQPGRSLRLSCAASGFIFSHYGMHWVRQAPGKGLEWVAVILYDGSDQYYADSVKGRFTISRDNSKNTLFLEMNSLRLEDTAVYYCAKGGGQYCSHGNCYLNYFDYWGQGALVTVSS chain 2: DIQMTQSPSSLSASVGDRVTITCQASQDIRDNLNWYQQKPGKAPQLLIYDASNLQPGVPSRFSGSGSGTHFTFTISRLQPEDIATYFCQQYANLPTTFGPGTKVDIK | 1.88
10 | C898 (protein) chain 1: QVQLVQSGAEVKKPGSSVKVSCKASGGPFSSYAFTWVRQAPGQGLEWMGGIIATFGTVNYAQKFQGRVTITADEFTSTVNMELSSLRSDDTAVYYCARRDCSTTSCYDEVLYRLVDWGQGTLVTVSS chain 2: EIVLTQSPGTLSLSPGERATLSCRASQSVNSDYLAWYKQKPGQAPRLLIYGTSSRATGIPDRFSGSGSGTDFTLTISRLEPDDFAVYYCQQYGNSPRTFGQGTKVEIK | 7.6
11 | C899 (protein) chain 1: EVQLVESGGGLVKPGGSLRLSCAASGFTFSNAWMSWVRQAPGKGLEWVGRIKSKTDAETTDYAAPVRGRFTISRDNSKNTLYLEMNSLKTEDTAVYYCTTDADYSDSSGYYVTYYFEYWGQGSLVTVSS chain 2: QSALTQPRSVSGSPGQSVTISCTGSNSDVGGYNYVSWYQQHPGKAPKLVIYDVSLRPSGVPDRFSGSKSGITASLTISGLQPEDEAHYYCCSFAGTYTPWVFGGGTRLTVL | 2.23
12 | C900 (protein) chain 1: QVQLQESGPGLVKPSGTLSLTCTVSGGSINSRNWWSWVRQPPGKGLEWIGEIFHSGSTNYNPSLESRVAISIDKSHNHFSLKLTSVTAADTAVYYCARANGILDFWGQGTLVTVSS chain 2: DIQMTQSPSSLSASVGDRVTITCRASQGISNSLAWYQLKPGKAPKLLLYAASTLESGVPSRFSGSGSGTNFTLTISSLQPEDFASYCCQHYYSSPRTFGQGTKVEI | 2.54
13 | C901 (protein) chain 1: QVQLVESGGGVVQPGRSLRIACGASGFTFSTYDMHWVRQAPVKGLEWVAVISRDGSGKFYADSVKGRFTISRDNSKKTLYLQMDSLRPEDTAMYYCARDFESRTWDPPKYYYALDVWGQGTTVTVSS chain 2: DIQMTQSPSSLSASVGDRVTITCRASQSISTYLNWYQQKPGKAPSLLIYAASSLYSGVPSRFSGSGSGTDFSLTISSLQPEDFATYYCQQTYTTPTWTFGQGTKVEIK | 2.16
14 | C902 (protein) chain 1: EVQLVQSGAEVKKPGESLRISCKGSGYSFHTYWIHWVRQMPGKGLEWMGKIDPSDSYTNYSPSFQGHVTFSADRSISTAYLQWSSLKASDTATYYCARLSWSPPTRTTDEKNWFDPWGQGTLVTVSS chain 2: DIQLTQSPSFLAASAGDRVTITCRASQGISSYLAWYQQKPGKAPKVLIYAASTLQSGVPSRFSGSGSGTEFTLTISSLQPEDCATYYCQQFNSDPLTFGGGTKVEIK | 3.39
15 | C839 (protein) chain 1: QVQLQESGPGLVKPLDTLSLTCTVSGASISSYYWSWIRQPAGKGLEWIGLIYSSGSTTYNPSLKSRVTMSVDTSKKQFSLNLSSMTAADTAVYYCARGSALNWKSIGYFDSWGQGTLVTV chain 2: DIQMTQSPSSLSASIRDRVTITCQASQDISNYLNWYQQKAGEAPKLLIYDASSLETGVPSRFSGSGSGTEFTLTISSLQPEDIATYYCQQYDHVPLTFGGGTKVEIK | 4.38
16 | C952 (protein) chain 1: EVQLVQSGAEVKKPGESLTISCKDSGNSFTIYWIGWVRQMPGKGLEWMGMIYPGDSGTRYSPSFEGQVTISADESINTAYLQWRSLKASDTAMYYCVRGIAVDWYFDLWGRGTLVTVSS chain 2: QSVLTQPPSVSGAPGQRVTISCTGSSSNIGAGFDVHWYQQLPGTAPKLLIYGNNNRPSGVPDRFSGSKSATSASLAITGLQAEDEADYYCQSSDSSLSGLYVFGTGTNVIV | 2.4
17 | C954 (protein) chain 1: QVQLVQSGAEVKKPGSSVKVSCKASGDTFTNYAFSWMRQAPGQGLEWMGRIIPILGIVKYSQKFQDRVRISADKSTSTAYMDLSSLRSEDTAMYYCARDSEFSTSWFSRGYHGMDVWGQGTTVTVSS chain 2: DIVMTQSPLSLPVTPGEPASISCRSSQSLLHGDGYNYLDWYLQKPGQSPHLLIYLGSNRTSGVSDRFSGSGSGTDFTLKISRVEAEDVGVYYCMQALQTPPTFGGGTKVEIK | 1.48
18 | C955 (protein) chain 1: QVQLQQWGAGLLKPSETLSLTCAVYGGTFSGYSWTWIRQPPGKGLDWIGEINHSGSTNYNPSLKSRVTISVDTSKNQFSLKLSSVTAADTAVYYCARAGFGFVITSRSGTDPLFDYWGQGTLVTVSS chain 2: QSVLTQPPSVSGAPGQRVTISCTGSSSNIGAGYDVHWYQQLPGTAPKVLIYGNNNRPSGVPDRFSGSKSGTSASLAITGLQAEDEADYYCQSYDTSLSGSRVFGGGTKLTVL | 2.44
19 | C956 (protein) chain 1: EVQLVESGGGLVQPGRSLRLSCTGSEFTFGDFSMSWFRQAPGKGLEWVGFIRRKADGGTTEYAASVRGRFTISRDDSKSIAYLVMNSLKSEDTAVYYCTRAWIPTPHDYWGQGVLVTVSS chain 2: not shown | 1.58
